Test results: PubChem BioAssay (NCATS)
Inconclusive means that the source gave no clear call. Such entries were picked first, then a sample of the others. A potency beside an inconclusive call is a rough fit, not a confirmed value. Active and inactive are the calls of the source. Calls follow the shape of the dose curve; as a rule, active = well fitted activation curve with a large enough effect; inconclusive = small, poorly fitted or top-dose-only effect; inactive = no such curve, though single readings can be large or run the other way.
Potency is read from the fitted curve at half-maximal effect; tags tell the direction and shape of the fitted curve.

The compounds below were run against Cellular tumor antigen p53 (Homo sapiens) (UniProt P04637) (assay: Primary qHTS for small molecule compounds that upregulate eGFP-tagged delta133p53alpha (in N-terminal) cells. (AID 2060322; also: nearly all actives have a fitted effect of over 75% in size;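 as to activation: series mostly up to about 56 µM; 0% = DMSO vehicle and 100% = reference activator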)). Conditions: NCI-H358 eGFP-delta133p53alpha fluorescence, 24 h; activation: active compounds read high.
UniProt P04637, sequence (P04637 whole entry, looked up): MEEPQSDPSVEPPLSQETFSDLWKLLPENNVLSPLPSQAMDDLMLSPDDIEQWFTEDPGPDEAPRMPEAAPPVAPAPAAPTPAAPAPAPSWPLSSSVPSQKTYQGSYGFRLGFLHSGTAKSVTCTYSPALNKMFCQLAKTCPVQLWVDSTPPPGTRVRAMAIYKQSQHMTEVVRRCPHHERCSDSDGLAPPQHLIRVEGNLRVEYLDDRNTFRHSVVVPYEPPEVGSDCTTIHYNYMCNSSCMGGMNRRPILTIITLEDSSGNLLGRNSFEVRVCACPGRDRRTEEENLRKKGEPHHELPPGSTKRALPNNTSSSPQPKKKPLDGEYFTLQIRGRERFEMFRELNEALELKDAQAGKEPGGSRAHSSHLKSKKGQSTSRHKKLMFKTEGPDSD
Method in brief: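 NCI-H358 cells pre-induced 24 h with 10 ng/ml doxycycline to express N-terminal eGFP-delta133p53alpha, then dosed 24 h at 37C without doxycycline; fixed, Hoechst-stained, GFP intensity by laser scanning cytometry, normalized to DMSO (0%) and 57.5 uM 5-azacytidine (100%).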
In the case of `C[C@]12CC[C@@H]3c4ccc(O)cc4CC[C@H]3[C@@H]1C[C@@H](O[C@@H]1O[C@H](C(=O)O)[C@@H](O)[C@H](O)[C@H]1O)[C@@H]2O`, the activation is reported as inactive: -6.33%. With `C=C1C(=O)OC2/C=C(\C)CC/C=C(\C(=O)O)CC/C=C(\C)CCC12` (stereo unspecified) the Potency was inconclusive: 7.4 µM [activator, single point]. In the case of `CNC(=O)c1ccccc1Nc1nc(Nc2ccc3c(c2OC)CCCC(N2CCN(CCO)CC2)C3)ncc1Cl` (stereo unspecified), the Potency is reported as inconclusive: 3.38 µM [activator, full curve]. With `COC(=O)C1=CO[C@@H](O[C@@H]2O[C@H](CO)[C@@H](O)[C@H](O)[C@H]2O)[C@H]2[C@@H]1C=C[C@@]21C=C([C@H](C)O)C(=O)O1` the activation was inactive: 13.4%. With `CCCCCCCCCCCCCCCC[N+](C)(C)CC` the Potency was inconclusive: 0.872 µM [activator, full curve, poor fit]. `C=C1C(=O)O[C@H]2C3=C(C)CCC[C@]3(C)C(=O)C[C@@H]12` was tested, and the Potency was active: 15.1 µM. In the case of `NC(=O)CCCCC1CCSS1` (stereo unspecified), the Potency is reported as inconclusive: 0.0069 µM [activator, full curve, poor fit]. `C#C[C@]1(OC(C)=O)CC[C@H]2[C@@H]3CCC4=C[C@@H](OC(C)=O)CC[C@@H]4[C@H]3CC[C@@]21C` was tested, and the Potency was inconclusive: 3.89 µM [activator, partial curve]. `CCCCN1CCC(CNC(=O)c2c3n(c4ccccc24)CCCO3)CC1` was tested, and the Potency was inconclusive: 19.3 µM [activator, partial curve, poor fit]. With `C=CC(C)(C)C12CC3C(=O)N4C(CC5(C(C)(C)C=C)c6ccccc6NC45)C(=O)N3C1Nc1ccccc12` (stereo unspecified) the Potency was inconclusive: 4.15 µM [activator, full curve, poor fit]. With `N=C1N=C(N)c2cc3ccccc3cc21` the Potency was active: 35.5 µM. With `CC1(C)CC[C@]2(C(=O)O[C@@H]3O[C@H](CO)[C@@H](O)[C@H](O)[C@H]3O)CC[C@]3(C)C(=CCC4[C@@]5(C)CC[C@H](OC6OC(C(=O)O)C(OC7OC(CO)C(O)C(O)C7O)C(O)C6O)C(C)(C)C5CC[C@]43C)C2C1` (stereo partly specified) the activation was inactive: -16.8%. With `CC1CC(=O)C2=C(O1)OC1(C)CCC3C(C)(C)C4OC4C(=O)C3(C)C1C2` (stereo unspecified) the activation was inactive: 16.1%. In the case of `COc1cc(Nc2nc3c(s2)CCCC3c2ccc(F)cc2)ccc1-n1cnc(C)c1` (stereo unspecified), the activation is reported as inactive: -13.4%. With `CC(C)c1cc(C(=O)N2CC[C@H](NC(=O)C3CC3)C2)n[nH]1` the Potency was inconclusive: 0.213 µM [activator, full curve, poor fit]. In the case of `CN(C)c1ccnc2sc3c(=O)n(N4CCCCCC4)cnc3c12`, the activation is reported as inactive: -18.1%. `CNS(=O)(=O)CC1CCC(N(C)c2ncnc3[nH]ccc23)CC1` (stereo unspecified) was tested, and the activation was inactive: -0.477%. For `CN(C/C=C/c1ccccc1)Cc1cccc2ccccc12`, the Potency was inconclusive: 6.92 µM [activator, single point]. With `COC(=O)[C@H](O)[C@H]1C(C)(C)[C@H](OC(C)=O)[C@@]2(O)C(=O)[C@]1(C)C1CC[C@]3(C)C(CC(=O)O[C@H]3c3ccoc3)[C@]13O[C@@H]32` (stereo partly specified) the Potency was inconclusive: 18.5 µM [activator, single point]. `CC(C)=CCC/C(C)=C/CO[C@@H]1O[C@H](CO)[C@@H](O)[C@H](O)[C@H]1O` was tested, and the activation was inactive: -4.46%. With `O=C(O)C1=NC(C(=O)O)CC(C=CN2c3cc(O)c(OC4OC(CO)C(O)C(O)C4O)cc3CC2C(=O)O)=C1` (stereo unspecified) the activation was inconclusive: 55.2% [activator]. `Cc1nc2cc(C(=O)NCc3ccccn3)nn2c(C)c1Cc1cccc(Cl)c1` was tested, and the Potency was inconclusive: 37.9 µM [activator, single point]. `COC(=O)[C@H]1[C@H]2C[C@@H]3c4[nH]c5cc(OC)ccc5c4CCN3C[C@H]2C[C@@H](OC(=O)/C=C/c2cc(OC)c(OC)c(OC)c2)[C@@H]1OC` was tested, and the Potency was active: 7.93 µM. With `Cc1cn2c(-c3cn[nH]c3)cnc2c(Nc2ccc(C(=O)N3CCNCC3)cc2F)n1` the Potency was inconclusive: 6.01 µM [activator, single point]. `C=C1C(=O)OC2CC(C)C(CCC(C)O)=CCC12` (stereo unspecified) was tested, and the Potency was inconclusive: 37.9 µM [activator, single point]. For `CC(C)=CCC[C@](C)(O[C@@H]1O[C@H](CO[C@@H]2O[C@@H](CO)[C@H](O)[C@H]2O)[C@@H](O)[C@H](O)[C@H]1O)[C@H]1CC[C@]2(C)[C@@H]1[C@H](O)C[C@@H]1[C@@]3(C)CC[C@H](O[C@@H]4O[C@H](CO)[C@@H](O)[C@H](O)[C@H]4O[C@@H]4O[C@H](CO)[C@@H](O)[C@H](O)[C@H]4O)C(C)(C)[C@@H]3CC[C@]12C`, the Potency was inconclusive: 4.15 µM [activator, single point].
